Experimental data from PMC9122603.
Results are given in words; binding and its absence hold for the method and conditions named. Binding seen in cells or lysates may run through a third protein. Some entries that bind do so weakly or less than the wild type.

Amino acid sequences for entries named in this document (tags omitted).
UniProt Q01196: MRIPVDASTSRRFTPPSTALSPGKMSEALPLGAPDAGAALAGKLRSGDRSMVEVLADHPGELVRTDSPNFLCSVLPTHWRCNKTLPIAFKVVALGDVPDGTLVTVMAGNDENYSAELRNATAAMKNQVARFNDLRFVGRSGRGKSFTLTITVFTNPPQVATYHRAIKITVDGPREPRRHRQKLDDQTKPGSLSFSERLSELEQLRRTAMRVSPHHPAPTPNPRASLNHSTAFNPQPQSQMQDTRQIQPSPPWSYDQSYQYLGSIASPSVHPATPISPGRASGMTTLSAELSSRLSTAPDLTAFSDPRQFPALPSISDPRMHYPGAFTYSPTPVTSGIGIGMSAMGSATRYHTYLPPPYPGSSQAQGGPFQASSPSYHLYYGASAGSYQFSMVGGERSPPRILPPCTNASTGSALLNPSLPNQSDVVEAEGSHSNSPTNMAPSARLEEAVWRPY
UniProt P40763: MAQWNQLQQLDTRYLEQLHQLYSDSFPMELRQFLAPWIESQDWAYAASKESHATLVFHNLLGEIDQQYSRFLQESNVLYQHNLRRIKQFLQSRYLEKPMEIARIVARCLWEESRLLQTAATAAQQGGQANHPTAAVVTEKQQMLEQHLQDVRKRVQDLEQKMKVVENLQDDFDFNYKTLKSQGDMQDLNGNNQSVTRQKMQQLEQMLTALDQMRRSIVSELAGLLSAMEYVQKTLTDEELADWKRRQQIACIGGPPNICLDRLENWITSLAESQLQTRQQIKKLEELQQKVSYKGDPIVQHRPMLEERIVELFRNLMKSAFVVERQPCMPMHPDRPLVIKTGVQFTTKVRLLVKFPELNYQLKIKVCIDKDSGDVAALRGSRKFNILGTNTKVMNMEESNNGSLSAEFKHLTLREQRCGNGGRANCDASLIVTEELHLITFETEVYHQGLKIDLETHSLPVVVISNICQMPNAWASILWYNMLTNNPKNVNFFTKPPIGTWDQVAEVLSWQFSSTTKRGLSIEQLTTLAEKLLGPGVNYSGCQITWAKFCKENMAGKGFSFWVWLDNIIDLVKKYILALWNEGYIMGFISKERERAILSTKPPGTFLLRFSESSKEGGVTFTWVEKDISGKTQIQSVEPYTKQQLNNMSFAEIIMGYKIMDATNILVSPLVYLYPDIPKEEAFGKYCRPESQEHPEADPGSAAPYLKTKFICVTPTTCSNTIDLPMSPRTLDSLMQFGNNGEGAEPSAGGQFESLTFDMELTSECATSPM
UniProt P05412: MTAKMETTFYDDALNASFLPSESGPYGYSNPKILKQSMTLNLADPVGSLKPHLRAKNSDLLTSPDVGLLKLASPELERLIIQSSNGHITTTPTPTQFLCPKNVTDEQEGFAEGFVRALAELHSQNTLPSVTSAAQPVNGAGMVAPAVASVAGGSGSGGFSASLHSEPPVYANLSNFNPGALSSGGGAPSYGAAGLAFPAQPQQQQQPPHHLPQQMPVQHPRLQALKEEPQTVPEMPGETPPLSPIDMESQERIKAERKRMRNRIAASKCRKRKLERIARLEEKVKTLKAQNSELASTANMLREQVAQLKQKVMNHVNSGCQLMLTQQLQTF

T1: BATF (human (endogenous in Th17 cells from cord blood CD4+ T-cells)) (UniProt Q16520)
T1 sequence: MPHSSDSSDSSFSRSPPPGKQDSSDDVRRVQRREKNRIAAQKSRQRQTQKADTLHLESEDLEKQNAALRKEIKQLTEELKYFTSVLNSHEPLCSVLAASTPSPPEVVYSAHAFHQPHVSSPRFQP


Molecular target: T1, BATF (human (endogenous in Th17 cells from cord blood CD4+ T-cells))
Assay: co-IP; endogenous BATF immunoprecipitated from 72 h-polarized human Th17 cultures; partners detected by immunoblot; three biological replicates

binding | Molecule
binds | RUNX1 (from UniProt Q01196 1-453)
no binding | STAT3 (from UniProt P40763 1-770)
no binding | IRF4 (protein, UniProt Q15306 1-451) MNLEGGGRGGEFGMSAVSCGNGKLRQWLIDQIDSGKYPGLVWENEEKSIFRIPWKHAGKQDYNREEDAALFKAWALFKGKFREGIDKPDPPTWKTRLRCALNKSNDFEELVERSQLDISDPYKVYRIVPEGAKKGAKQLTLEDPQMSMSHPYTMTTPYPSLPAQQVHNYMMPPLDRSWRDYVPDQPHPEIPYQCPMTFGPRGHHWQGPACENGCQVTGTFYACAPPESQAPGVPTEPSIRSAEALAFSDCRLHICLYYREILVKELTTSSPEGCRISHGHTYDASNLDQVLFPYPEDNGQRKNIEKLLSHLERGVVLWMAPDGLYAKRLCQSRIYWDGPLALCNDRPNKLERDQTCKLFDTQQFLSELQAFAHHGRSLPRFQVTLCFGEEFPDPQRQRKLITAHVEPLLARQLYYFAQQNSGHFLRGYDLPEHISNPEDYHRSIRHSSIQE

The remaining lines, values behind:

Molecule | binding
JUN (from UniProt P05412 1-331) | binds
JUNB (protein, UniProt P17275 1-347) MCTKMEQPFYHDDSYTATGYGRAPGGLSLHDYKLLKPSLAVNLADPYRSLKAPGARGPGPEGGGGGSYFSGQGSDTGASLKLASSELERLIVPNSNGVITTTPTPPGQYFYPRGGGSGGGAGGAGGGVTEEQEGFADGFVKALDDLHKMNHVTPPNVSLGATGGPPAGPGGVYAGPEPPPVYTNLSSYSPASASSGGAGAAVGTGSSYPTTTISYLPHAPPFAGGHPAQLGLGRGASTFKEEPQTVPEARSRDATPPVSPINMEDQERIKVERKRLRNRLAATKCRKRKLERIARLEDKVKTLKAENAGLSSTAGLLREQVAQLKQKVMTHVSNGCQLLLGVKGHAF | binds
